{"source": "patent EP3057951B1", "about": "“METHYLENE LINKED QUINOLINYL MODULATORS OF ROR-GAMMA-T” (Janssen Pharmaceutica NV, priority 2013, dated 2015)", "note": "Counter-ions that a name gives are not always drawn.", "data": [{"system": "IL-17 production by CD4 T cells", "experiment": "Human Th17 Assay (IL-17 production under Th17 differentiation conditions)", "settings": "Homo sapiens, CD4+ T, 72 h, read-out: Human Th17 Assay, IC50", "units": {"IC50": "nM"}, "values": [{"smiles": "COc1nc2ccc(C(O)(c3cnc(C)n3C)c3cnc(C)n3C)cc2c(Cl)c1Cc1ccc(-n2cccn2)cc1", "note": "[Example 13, (3-(4-(1H-Pyrazol-1-yl)benzyl)4-chloro-2-methoxyquinolin-6-yl)bis(1,2-dimethyl-1H-imidazol-5-yl)methanol]", "IC50": 100}, {"smiles": "COc1nc2ccc(C(N)(c3ccc(Cl)cc3)c3cncn3C)cc2c(Cl)c1Cc1ccc(-n2cccn2)cc1", "note": "(stereo not shown) [Example 118c, (3-(4-(1H-Pyrazol-1-yl)benzyl)4-chloro-2-methoxyquinolin-6-yl)(4-chlorophenyl)(1-methyl-1H-imidazol-5-yl)methanamine•TFA]", "IC50": 50}]}, {"system": "IL-17 production by CD4 T cells", "experiment": "Human Th17 Assay (IL-17 production under Th17 differentiation conditions)", "settings": "Homo sapiens, CD4+ T, 72 h, read-out: Human Th17 Assay, IC50, IL-17 production, CD4 T cells, 3 days", "units": {"IC50": "nM"}, "values": [{"smiles": "COc1nc2ccc(C(O)(c3ccc(F)cc3)c3cncn3C)cc2c(Cl)c1Cc1ccc(-n2cccn2)cc1", "note": "(single isomer, unassigned) [Example 160c, (3-(4-(1H-Pyrazol-1-yl)benzyl)-4-chloro-2-methoxyquinolin-6-yl)(4-fluorophenyl)(1-methyl-1H-imidazol-5-yl)methanol]", "IC50": 28}, {"smiles": "COc1nc2ccc(C(O)(c3cncn3C)C3CCOCC3)cc2c(C#N)c1Cc1ccc(-n2cccn2)cc1", "note": "(stereo not shown) [Example 2b, 3-(4-(1H-Pyrazol-1-yl)benzyl)-6-(hydroxy(1-methyl-1H-imidazol-5-yl)(tetrahydro-2H-pyran-4-yl)methyl)-2-methoxyquinoline-4-carbonitrile]", "IC50": 300}, {"smiles": "COc1nc2ccc(C(O)(C3CN(C(C)=O)C3)C3CN(C(C)=O)C3)cc2c(Cl)c1Cc1ccc(C(F)(F)F)cc1", "note": "[Example 3, 1,1'-(3,3'-((4-Chloro-2-methoxy-3-(4-(trifluoromethyl)benzyl)quinolin-6-yl)(hydroxy)methylene)bis(azetidine-3,1-diyl))diethanone]", "IC50": 110}, {"smiles": "COc1nc2ccc(C(O)(c3cnnn3C)c3cnnn3C)cc2c(Cl)c1Cc1ccc(C(F)(F)F)cc1", "note": "[Example 12, (4-Chloro-2-methoxy-3-(4-(trifluoromethyl)benzyl)quinolin-6-yl)bis(1-methyl-1H-1,2,3-triazol-5-yl)methanol]", "IC50": 2.4}, {"smiles": "COc1nc2ccc(C(O)(c3cncn3C)c3cncn3C)cc2c(Cl)c1Cc1ccc(C(F)(F)F)cc1", "note": "[Example 149, (4-Chloro-2-methoxy-3-(4-(trifluoromethyl)benzyl)quinolin-6-yl)bis(1-methyl-1H-imidazol-5-yl)methanol]", "IC50": 3}, {"smiles": "COc1ccc(C(O)(c2cccnc2)c2ccc3nc(OC)c(Cc4ccc(-n5cccn5)cc4)c(Cl)c3c2)cc1OC", "note": "(stereo not shown) [Example 159a, (3-(4-(1H-Pyrazol-1-yl)benzyl)-4-chloro-2-methoxyquinolin-6-yl)(3,4-dimethoxyphenyl)(pyridin-3-yl)methanol]", "IC50": 200}, {"smiles": "COc1nc2ccc(C(O)(c3ccc(F)cc3)c3cncn3C)cc2c(Cl)c1Cc1ccc(-n2cccn2)cc1", "note": "(stereo not shown) [Example 160a, (3-(4-(1H-Pyrazol-1-yl)benzyl)-4-chloro-2-methoxyquinolin-6-yl)(4-fluorophenyl)(1-methyl-1H-imidazol-5-yl)methanol]", "IC50": 89}, {"smiles": "COc1nc2ccc(C(O)(c3cccnc3)c3ccc(Cl)c(Cl)c3)cc2c(Cl)c1Cc1ccc(-n2cccn2)cc1", "note": "(stereo not shown) [Example 161a, (3-(4-(1H-Pyrazol-1-yl)benzyl)-4-chloro-2-methoxyquinolin-6-yl)(3,4-dichlorophenyl)(pyridin-3-yl)methanol]", "IC50": 82}]}, {"system": "IL-17 production by CD4 T cells", "experiment": "Human Th17 Assay (IL-17 production under Th17 differentiation conditions)", "settings": "read-out: Human Th17 Assay, IC50; IL-17 production, CD4 T cells, 3 days", "units": {"IC50": "nM"}, "values": [{"smiles": "COc1ccc(C(O)(c2cccnc2)c2ccc3nc(OC)c(Cc4ccc(-n5cccn5)cc4)c(Cl)c3c2)cc1OC", "note": "(single isomer, unassigned) [Example 159b, (3-(4-(1H-Pyrazol-1-yl)benzyl)-4-chloro-2-methoxyquinolin-6-yl)(3,4-dimethoxyphenyl)(pyridin-3-yl)methanol]", "IC50": 1800}, {"smiles": "COc1ccc(C(O)(c2cccnc2)c2ccc3nc(OC)c(Cc4ccc(-n5cccn5)cc4)c(Cl)c3c2)cc1OC", "note": "(single isomer, unassigned) [Example 159c, (3-(4-(1H-Pyrazol-1-yl)benzyl)-4-chloro-2-methoxyquinolin-6-yl)(3,4-dimethoxyphenyl)(pyridin-3-yl)methanol]", "IC50": 53}, {"smiles": "COc1nc2ccc(C(O)(c3cccnc3)c3ccc(Cl)c(Cl)c3)cc2c(Cl)c1Cc1ccc(-n2cccn2)cc1", "note": "(single isomer, unassigned) [Example 161b, (3-(4-(1H-Pyrazol-1-yl)benzyl)-4-chloro-2-methoxyquinolin-6-yl)(3,4-dichlorophenyl)(pyridin-3-yl)methanol]", "IC50": 1000}, {"smiles": "COc1nc2ccc(C(O)(c3cccnc3)c3ccc(Cl)c(Cl)c3)cc2c(Cl)c1Cc1ccc(-n2cccn2)cc1", "note": "(single isomer, unassigned) [Example 161c, (3-(4-(1H-Pyrazol-1-yl)benzyl)-4-chloro-2-methoxyquinolin-6-yl)(3,4-dichlorophenyl)(pyridin-3-yl)methanol]", "IC50": 60}, {"smiles": "COc1nc2ccc(C(O)(c3ccccc3)C3CCN(C(C)=O)CC3)cc2c(Cl)c1Cc1ccc(-n2ccnc2)cc1", "note": "(stereo not shown) [Example 16b]", "IC50": 91}, {"smiles": "COc1nc2ccc(C(O)(c3ccccc3)C3CCN(C(C)=O)CC3)cc2c(Cl)c1Cc1ccc(-n2ccnc2)cc1", "note": "(stereo not shown) [Example 16c]", "IC50": 10}]}]}
